In all, about 310,000 compounds went through this assay and about 14,000 (4.5%) showed an effect of 50% or more. Effects have a minus sign here. The list shows a part of the results.
Molecular target: human ether-à-go-go-related gene (hERG) potassium channel (human, UniProt Q12809)
Test: primary screen, population patch clamp on CHO cells stably expressing hERG
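Note: peak tail current of the secondary pulse compared with the same well before compound.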

Sequence of human ether-à-go-go-related gene (hERG) potassium channel (Q12809 whole entry, looked up): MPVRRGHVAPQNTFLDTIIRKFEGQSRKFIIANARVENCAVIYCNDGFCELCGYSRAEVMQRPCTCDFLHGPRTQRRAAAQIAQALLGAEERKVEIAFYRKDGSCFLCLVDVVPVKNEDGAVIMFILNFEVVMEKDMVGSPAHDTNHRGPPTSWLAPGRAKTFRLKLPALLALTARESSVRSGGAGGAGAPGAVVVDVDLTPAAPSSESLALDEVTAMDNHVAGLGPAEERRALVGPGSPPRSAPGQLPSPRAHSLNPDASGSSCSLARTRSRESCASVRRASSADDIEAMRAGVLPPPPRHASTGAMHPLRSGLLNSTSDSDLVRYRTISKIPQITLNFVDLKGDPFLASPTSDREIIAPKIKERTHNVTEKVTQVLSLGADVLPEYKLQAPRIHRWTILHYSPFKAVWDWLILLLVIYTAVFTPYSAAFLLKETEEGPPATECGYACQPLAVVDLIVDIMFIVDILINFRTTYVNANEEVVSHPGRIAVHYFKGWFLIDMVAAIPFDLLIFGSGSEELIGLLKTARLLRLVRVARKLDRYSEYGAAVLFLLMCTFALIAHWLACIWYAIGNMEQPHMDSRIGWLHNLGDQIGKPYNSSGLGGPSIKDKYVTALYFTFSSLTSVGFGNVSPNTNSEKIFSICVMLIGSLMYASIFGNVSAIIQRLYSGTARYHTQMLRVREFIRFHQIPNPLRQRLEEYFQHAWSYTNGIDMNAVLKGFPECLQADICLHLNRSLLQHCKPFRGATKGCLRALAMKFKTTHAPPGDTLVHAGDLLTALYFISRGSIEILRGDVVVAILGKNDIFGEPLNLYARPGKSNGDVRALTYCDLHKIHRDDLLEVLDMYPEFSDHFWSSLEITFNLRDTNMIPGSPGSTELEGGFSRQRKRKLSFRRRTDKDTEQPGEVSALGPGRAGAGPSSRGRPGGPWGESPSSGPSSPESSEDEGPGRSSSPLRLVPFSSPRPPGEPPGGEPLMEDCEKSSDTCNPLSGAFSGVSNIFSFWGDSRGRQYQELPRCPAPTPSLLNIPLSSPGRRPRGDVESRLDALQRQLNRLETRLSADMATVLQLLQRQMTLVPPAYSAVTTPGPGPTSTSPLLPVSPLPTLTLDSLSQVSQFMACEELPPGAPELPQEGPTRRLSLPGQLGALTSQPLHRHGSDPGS

SMILES	hERG current change (%, negative = inhibition) at 10uM
O=C(N/N=C/c1cccnc1)c1ccc([N+](=O)[O-])cc1Cl	-11.1%
CCOn1c(=O)c(=O)n(O)c2ccccc21	35.7%
CCc1ccc(NC(=O)CCc2c(C)nn(-c3ccc(N4CCCCC4)nn3)c2C)cc1	-16.8%
CCCCn1nc2cc(C(=O)NC3CCc4ccccc43)ccc2c1OCC (stereo not drawn)	-33.4%
O=C(NCc1ccccn1)C(=O)NN=C1CCCCCCCCCCC1	5.19%
Cc1cccc(OCCCC(=O)Nc2nccs2)c1	4.39%
CCN1CCN(CCC(=O)Nc2ccc(Br)c(C)c2)CC1.Cl	-30.8%
O=C(NCc1cccnc1)Nc1ccc(Cl)c(Cl)c1	-0.174%
Cc1noc(C)c1COc1ccccc1C(=O)N(C)CC(=O)Nc1ccc(Cl)c(Cl)c1	-21.4%
CCc1nnc(NS(=O)(=O)c2ccc(NC(=S)NC(=O)/C=C/c3ccc(C(C)C)cc3)cc2)s1	8.63%
CC(O)C(=O)N/N=C/c1ccccc1C(=O)O (stereo not drawn)	14%
CN(C)CCNc1nc(-c2ccco2)c2c(c1C#N)CC(C)(C)OC2	-55.7%
CCCCCN(C(=O)CCC(=O)OCc1cccc(C(F)(F)F)c1)c1c(N)n(CCCC)c(=O)[nH]c1=O	1.99%
Cc1cc(-c2nnc(CCC(=O)NC(Cc3ccccc3)c3ccccc3)o2)no1 (stereo not drawn)	-0.709%
Cc1ccc(NC(=O)Nc2nc3ccccc3s2)cc1NC(=O)Nc1nc2ccccc2s1	6.17%
O=C(NCCc1ccccc1)C1CCCN(c2cnccn2)C1 (stereo not drawn)	12.8%
Cc1cc(NC(=O)CC(C)(C)C)nc2c1c(=O)oc1ccccc12	12%
CC(=O)Nc1ccc(S(=O)(=O)NCCC(=O)OC(C)C(=O)NC2(C#N)CCCCC2)cc1 (stereo not drawn)	-20.2%
CCOc1ccc(OCCSc2nnnn2-c2ccccc2)cc1	-3.82%
CCSc1ncc(C#N)c(=O)[nH]1	27.4%
CC1CCc2sc(C(=O)NNC(=O)c3ccncc3)cc2C1 (stereo not drawn)	-0.00082%
Cc1nc(NC(=S)NC(=O)COc2ccc(Cl)cc2)ccc1Br	2.01%
COc1ccc(C(=O)N(NC(=O)Oc2ccccc2)C(C)(C)C)cc1	-0.877%

SMILES	hERG current change (%, negative = inhibition) at 10uM
CCC(C)NS(=O)(=O)c1ccc(OCC(=O)NCc2ccc(OC)cc2)cc1 (stereo not drawn)	24.7%
O=C(CNC(=O)c1ccc(Br)o1)Nc1ccccc1	15.8%
CN(C)/C=N/c1cc(=O)[nH]c(=O)n1C	13.6%
O=C(Nc1ccc(N2CCOCC2)cc1)NC1CCCCC1	6.25%
COc1cccc(OCC(O)CN2CCC(Cc3ccccc3)CC2)c1.Cl (stereo not drawn)	-70.4%
CCCNC(=O)C12CCC(C)(C(=O)O1)C2(C)C (stereo not drawn)	17.2%
CCCCOc1ccc(C(=O)N(Cc2ccccc2)C2CCS(=O)(=O)C2)cc1 (stereo not drawn)	-31.8%
Cc1ncc([N+](=O)[O-])n1CCOC(=O)c1ccccc1	8.09%
CC(C)(C)c1ccc(C(=O)N2CCC(C(=O)c3ccccc3)CC2)cc1	-16.7%
Cc1ccc(/C=C2\C(=O)NC(=O)N(Cc3ccccc3Cl)C2=O)o1	21.5%
O=C(COc1ccc(Br)cc1)N1CCc2ccccc21	20.2%
COc1ccccc1CN(C)C(=O)C(NC(=O)Cc1cccc2ccccc12)C(C)C (stereo not drawn)	16.7%
C=CCn1c(SCC(=O)NCc2ccco2)nnc1C1CCCCC1	4.13%
O=C(NC(=O)c1ccccc1)Nc1cccc(S(=O)(=O)N2CCCCC2)c1	-43.4%
Cc1nc2ccccc2n1Cc1ccccc1Br	-9.21%
Cc1ccc(C(C)C)cc1OCCCCN1CCCC1	-49%
CCOc1ccc(NC(=S)N2CCC(C(N)=O)CC2)cc1	1.31%
Cc1ccc(/C=N/NC(=O)Cc2cccn2C)s1	-7.36%
CCOc1cc(N2CCOCC2)c(OCC)cc1NC(=O)Cc1cccc2ccccc12	-7.49%
CCCN(CCC)C(=O)CC(c1ccc(F)cc1)c1ccco1 (stereo not drawn)	-8.46%
O=C(Cc1ccccc1[N+](=O)[O-])N1CCc2ccccc2C1	1.78%
O=C(C1CCCN1S(=O)(=O)c1ccc(Cl)c(Cl)c1)N1CCOCC1 (stereo not drawn)	2.37%
COCC(=O)N1CCC(Oc2ccc(C(=O)NC3CCOC(C)(C)C3)cc2)CC1 (stereo not drawn)	7.18%

SMILES	hERG current change (%, negative = inhibition) at 10uM
O=c1nc(N2CCCCC2)nc2n1CCO2	1.75%
Cc1ncc(CO)c(/C=N/NC(=O)c2cc3c(s2)CCCC3)c1O	7.39%
CCC(C(=O)NCC1CCCO1)N(C(=O)c1snc(C(N)=O)c1N)c1ccc(Cl)cc1 (stereo not drawn)	19.9%
Clc1ccc(CN2CCN(c3ncccn3)CC2)cc1Cl	9.98%
O=S(=O)(Cc1ccccc1Cl)NCCc1ccccc1	-14.1%
O=[N+]([O-])c1ccc(C2OCCO2)cc1CS(=O)(=O)c1ccccc1	4.91%
Cc1cccc(N2CCN(S(=O)(=O)c3ccc4c(c3)NC(=O)CO4)CC2)c1C	13%
CN1CCN(CCCNC(=O)c2cn(C3CCCCC3)c(=O)c3c2c2ccccc2n3C)CC1	-3.14%
Cc1cccc(-c2nnc(SCCC(=O)N3CCOCC3)o2)c1	-5.85%
COc1ccc(C(=O)c2nc3ccccc3n2C(C)C)cc1OC	-16.5%
CC(=O)Nc1ccc(OC(F)(F)Cl)cc1	3.3%
COc1ccc(Nc2cc(Nc3cc(OC)c(OC)c(OC)c3)ncn2)cc1	-8.37%
CCc1ccc(N=CC23c4ccccc4C(c4ccccc42)C2C(=O)N(c4ccc(OC)cc4)C(=O)C23)cc1 (stereo not drawn)	8.42%
Cc1nnc(N(C)C(=O)Cc2ccc3c(c2)OCO3)s1	6.4%
C/C(=N\O)c1ccc2c(c1)CC(C)O2 (stereo not drawn)	13.7%
O=C(CCNC(=O)c1ccco1)Nc1ccc(F)c(Cl)c1	23.1%
CS(=O)(=O)c1ccc(Cl)c(NC(=O)CSc2nnc(C3CC3)n2C2CC2)c1	-2.61%
CCn1c(SCc2ccc(C(=O)OC)o2)nnc1-c1c[nH]c2ccccc12	-20.3%
COc1ccc(C(=O)NCC(=O)OCC(=O)Nc2ccc(C)c(S(=O)(=O)N(C)C)c2)cc1OC	-5.57%
C#CCN(Cc1ccccc1)S(=O)(=O)C=C	-7.33%
COc1ccc(/C=N/NC(=O)c2cc(C(C)(C)C)[nH]n2)cc1COc1ccc(F)cc1F	-7.91%
C#CCOc1ccc(/C=C2/C(=O)N(c3cccc(C(=O)O)c3)N=C2C)cc1OC	-2.13%
O=C(COC(=O)c1cc([N+](=O)[O-])ccc1N1CCOCC1)NCc1ccc(Cl)cc1Cl	-63%

SMILES	hERG current change (%, negative = inhibition) at 10uM
N/C(=N\OC(=O)CCCN1C(=O)c2ccccc2C1=O)c1ccc(Cl)cc1	-11.8%
N/C(Cc1ccc(Cl)c(Cl)c1)=N\OC(=O)c1ccc(Br)o1	12.6%
CN(NC(=O)c1ccc(Cl)cc1Cl)C1=NS(=O)(=O)c2ccccc21	-2.53%
COc1ccc(C(=O)NCc2cc3ccccc3n2C)cc1	28.6%
Cc1ccc(C)c(N2CCN(C(=O)Cc3ccc(-n4c(=O)[nH]c5ccsc5c4=O)cc3)CC2)c1	-31.2%
O=C(NCC1CCCO1)C1CC1(c1ccccc1)c1ccccc1 (stereo not drawn)	6.02%
CCN1C(=O)[C@H]2[C@@H](c3ccc(C)cc3)N3C(=O)N(c4cccc(Cl)c4)C(=O)[C@@]3(CC(C)C)[C@H]2C1=O	0.452%
COC(=O)C1C(C(C)C)N(c2ccccc2)OC1(C)O (stereo not drawn)	-11.3%
Cc1ccc(OCCC(=O)O)cc1	13.4%
COc1ccc(CCNC(=O)NS(=O)(=O)c2ccc(C)cc2)cc1OC	10.5%
NS(=O)(=O)c1ccc(NC(=O)C2Cc3ccccc3CN2C(=O)c2ccco2)cc1 (stereo not drawn)	6.57%
Cc1cccc(NC(=O)N2CCCC2)c1	12.4%
CC(=O)CCC(C)=O	16.4%
O=C(COC(=O)C1CCN(c2ccc(C(F)(F)F)cn2)CC1)c1ccccc1	-6.49%
COc1ccc2oc(=O)c(C(=O)N3CCCc4ccccc43)cc2c1	-63.1%
COc1ccc([C@H]2CC(=O)C=C(c3c(OC)cccc3OC)C2)cc1	-11.2%
O=C(C1CCC1)N1CCc2cc(S(=O)(=O)NCC3COc4ccccc4O3)ccc21 (stereo not drawn)	-6.69%
CC(=O)c1ccc(S(=O)(=O)NCC(=O)Nc2nc3ccccc3[nH]2)cc1	-8.14%
FC(F)Oc1ccc(NC(=S)Nc2ccc3cn[nH]c3c2)cc1	-79.5%
Cc1cc(C)n2nc(SCc3nnc(SCc4ccccc4Cl)s3)nc2n1	9.19%
Cc1ccc(C)c(S(=O)(=O)Nc2ccc(C(N)=O)cc2)c1	14.9%
